Measured values: paper PMC12136788
This is one part of the list.

B1: chr17:45757422:45757423:+_ENSG00000108424_ENST00000290158|hu_hu|motif|central (ssRNA)
RNA: GGGAGUUCUACAGUCCGACGAUCUACAUCCUUCCCAAAUGCUGUACAUAAGUCCCCUAUUAGUCCAGCAGCACAAGCGGCGGCUCCAUCUGUGUGAUCCUCAUCUCCAGCAAUGUGGUCAAUGAAAGACAGAAUAAAUUCUACCAACAGAGGAUUGAGCAUCA
B2: chr7:107556004:107556005:+_ENSG00000091140_ENST00000440410|hu_hu|FALSE|FALSE (ssRNA)
RNA: GGGAGUUCUACAGUCCGACGAUCGAUGCGUUGAAAGUUUUUAGAUAUCUCCAUAUCAAUUCCAACUCCACCUACAUGACCUAAAAAUUCAACUGCUGUCACAUCUGCACCAAGUCUUUGCCAAACUGAACCCAAUUCUACACCCAACAGAGGAUUGAGCAUCA
B3: chr19:16212804:16212805:+_ENSG00000167460_ENST00000300933|hu_mus|hu_hu_hu_mus_False|8_38 (ssRNA)
RNA: GGGAGUUCUACAGUCCGACGAUCAACAAUUCUGGAGUGAAGGAAAGAUGUAACAUGGAACAGCAUUAAAGCUCAGUCAGAAGGCACAUGGGCAACAAUGACUAUUUCAGCAUUCUCGCUUGGAAUGUGCUUGAGAAAUCUGUUCAACAGAGGAUUGAGCAUCA
B4: chr5:146798188:146798189:-_ENSG00000113657_ENST00000343218|hu_mus|FALSE|FALSE (ssRNA)
RNA: GGGAGUUCUACAGUCCGACGAUCCUUCCCGUUGGCCUCGAUGGUCUUCACACCUCCGGGGACAAUCAGAUUGUCUCCAAUUUGCUUUAUUAAGCCAUCCUCCAUGUAAAUAUCAGCAUAAAAGGACUGAUCAUCAUUGACGAUCAACAGAGGAUUGAGCAUCA
B5: chr20:57609950:57609951:-_ENSG00000101166_ENST00000355937|hu_mus|motif|central (ssRNA)
RNA: GGGAGUUCUACAGUCCGACGAUCGAUCUUUUGUUUAGAUCAAAAGUCACAGCCUUACCCCACCUCAUUAAAAAAAAAGAUCGGCCGGAAAUAAUUGUGUCUUUUAAAUAACAAAUAAUAUGAUGCCAGCUUGAGAGUCCUGGACAACAGAGGAUUGAGCAUCA
B6: chr3:9412954:9412955:+_ENSG00000134077_ENST00000452837|hu_mus|hu_hu_hu_mus_False|58_58 (ssRNA)
RNA: GGGAGUUCUACAGUCCGACGAUCGGUUGAUAUCUCUUCUUUGAUGGCUGGAUUUUCAUAAUAGUCCAAGAUAUGUGAAUCUAAAGCGCUGCUGGCAUGCUUUUUCUUACCAUCUUUCUCAUCUGCUUUGUCUCCUUGUCCACACAACAGAGGAUUGAGCAUCA
B7: chr11:108043965:108043966:-_ENSG00000149308_ENST00000278612|hu_hu|FALSE|FALSE (ssRNA)
RNA: GGGAGUUCUACAGUCCGACGAUCAGAAUUAUCUUGGCAAUUUGAUAGCUGUGACAUAACUGGUUCUAACACAUUAAUUUCUAUUUUACUCUUGUGAACUUCACUAGAAUCUGAUGACUUGGAACCAUGAAAAUUAAUUUUAAGCAACAGAGGAUUGAGCAUCA
B8: chr14:102378876:102378877:+_ENSG00000078304_ENST00000445439|hu_hu|motif|central (ssRNA)
RNA: GGGAGUUCUACAGUCCGACGAUCAGACAUUUUCAUAUACAACGUUAGUGAAAUCGAGACCCCCCCCAUGGUGAAGACAUAUAUUCCGGUCUUAUAAAAACAUUCAAGUAACCCUGGGCGUUUUCAUGUUAUUCUCUUUUUUAGCAACAGAGGAUUGAGCAUCA
B9: chr8:104447970:104447971:+_ENSG00000164934_ENST00000297579|hu_hu|hu_hu_hu_mus_False|1_48 (ssRNA)
RNA: GGGAGUUCUACAGUCCGACGAUCAUACACUUCCCUGCUUCGGCUCUUGUCCACAGGAAAGAUUCUAAUAGACUUAUCAAAGCUGGCAGACACAAACUCCUUCCCAGUGGGAGAGUAGUCCACAUCAAGUACUGCAGAUACAUGCAACAGAGGAUUGAGCAUCA
B10: 120933971_120934290_173_CDS_ENSG00000088986_ENST00000242577|human|control|control (ssRNA)
RNA: GGGAGUUCUACAGUCCGACGAUCCACCGAGUCCUGUUGCAUCUCUUCCGACAUGUCCGCAUUUUUGAUCACGGCCUUUCGGUCGCACAUGGUUACCGUGGAGAAGGGGGCUGGCCGACUGCAACGGUCUCCUGGGGGAGGUGCCAACAGAGGAUUGAGCAUCA
B11: chr5:111714535:111714536:+_ENSMUSG00000033209_ENSMUST00000156290|mus_mus|FALSE|FALSE (ssRNA)
RNA: GGGAGUUCUACAGUCCGACGAUCGUCUGAGCUUGCCAGUUUCCCCACUUUCUGGAAGGGUGAGUUUGGGCUGGGGAUCAGGGUCAUCUUCACGGGGGAGUUGGGAGUGCUGACGCUUCCCUUAGAGCUGACUGAAAGCCUCACCAACAGAGGAUUGAGCAUCA
B12: chr4:117558906:117558907:-_ENSMUSG00000033379_ENSMUST00000036380|mus_mus|FALSE|FALSE (ssRNA)
RNA: GGGAGUUCUACAGUCCGACGAUCGGAUGAGCCGGUUAUAUAGAUUCCCCAGGCUGCUCCAACCACAGACAGAGAAAUUGCUAGGCCAAUGCCCAGAUUCGACCACAUGAAGGGGGAAGUUUCCGUCAGGAACCAUGCCACAUCCAACAGAGGAUUGAGCAUCA
B13: chr5:135508174:135508175:+_ENSG00000113658_ENST00000545279|hu_hu|motif|central (ssRNA)
RNA: GGGAGUUCUACAGUCCGACGAUCACUAGUAGAAGAUGCAUGAAAAGCUUCUCCAACACGAUUGUUUAAUUCAUAGUAGACGGUUGAACACCAAUGUUUAGGCUCUUCAUAGGCAACAGGCUGAACAUCCCUGCUGGAUAUACUCAACAGAGGAUUGAGCAUCA
B14: chr10:88199856:88199857:+_ENSMUSG00000060904_ENSMUST00000116234|mus_mus|FALSE|FALSE (ssRNA)
RNA: GGGAGUUCUACAGUCCGACGAUCUGCAUCUGUGUUUGAAUAAUAACAUCUCCAGUAUGGCCUGAUACUUGUCUGUCCUCCUAAGUCCCAAACUUGGAAUUUGAGAUUUUUGUAUGUCACCGUCUCCACAUUAAAUCCAAUAGUCAACAGAGGAUUGAGCAUCA
B15: 81087466_81087586_1854_3pUTR_ENSMUSG00000025789_ENSMUST00000026896|mouse|control|control (ssRNA)
RNA: GGGAGUUCUACAGUCCGACGAUCGUCCUUUGGGCAGCUGCACUCUCAAGUUCAUGAACAAAGCCCUCAGCUCCGUUGUGAUCAGUGCUGCUUGCUCUCCUUGUGCCUCUUUGCCCAAUGGAAUUUUCCAAGUCUCUCCUCCAUCAACAGAGGAUUGAGCAUCA
B16: chr8:42711381:42711382:-_ENSG00000120925_ENST00000527424|hu_hu|motif|central (ssRNA)
RNA: GGGAGUUCUACAGUCCGACGAUCCACUUCUCGAUACAUAAUAGAGAUGUAGAUAAGCAAUAAAAAGAUGACAAAGAAAUCAUCGGGAAAGCCUAGAAUUCCAAACAAGGCUUCAGGUACAAAAUCUAGAGGUGAUAUAAGAUACAACAGAGGAUUGAGCAUCA
B17: chr16:16926518:16926519:+_ENSMUSG00000026181_ENSMUST00000027373|mus_mus|motif|central (ssRNA)
RNA: GGGAGUUCUACAGUCCGACGAUCGAGGGGGACUUGAGCUCACAGCCACCCUUCUCCCUGUUCCUUCCCUGAGCCUCGGCGGAGCCACCCAUUAUCCUGGCUAGGGGAUUCUUUUGGGAAGAGACUCUGAGGAGGAGGUGGCCACAACAGAGGAUUGAGCAUCA
B18: 67690123_67705373_131_CDS_ENSMUSG00000024533_ENSMUST00000115050|mouse|control|control (ssRNA)
RNA: GGGAGUUCUACAGUCCGACGAUCAAUCUUCUUAAGGUUCUCCUUUGCACUCUUAAUUUUGGUCAGAAAUGUAUGCAGUUCCAUGGUUUCUGCGAACAGGGCCCGACAUACUGCCUGAUAAUGAUUGGGUGCCUCCGACUCAGUCAACAGAGGAUUGAGCAUCA
B19: chr2:172803269:172803270:+_ENSG00000128708_ENST00000264108|hu_mus|FALSE|FALSE (ssRNA)
RNA: GGGAGUUCUACAGUCCGACGAUCGAAAGCAGUUUCAUCAUCCCCAAAGAGCUGAUGGGUAUAUUCAGGAAAGAAAGUUCUAAUGUCAUUCUCAAGAUCUUCAGGAAAACGAACUAGUUUCAGCUCGAUUGCUGUGUUGGUGUUCAACAGAGGAUUGAGCAUCA
B20: chr10:61154807:61154808:+_ENSMUSG00000020088_ENSMUST00000020285|mus_hu|motif|central (ssRNA)
RNA: GGGAGUUCUACAGUCCGACGAUCCAACUCUUUUAUGAGGUCAAAGUCACUUUUGAUAACUGAAAACGAAAAAGGAAGGUGCGGUAGAGAGAAAUUAAAUUUCACAAAAGUAUAAAAGCAAAGACUGGCUAAAAUCUGUAACUUCAACAGAGGAUUGAGCAUCA
B21: chr12:88510985:88510986:-_ENSMUSG00000034111_ENSMUST00000037418|mus_hu|FALSE|FALSE (ssRNA)
RNA: GGGAGUUCUACAGUCCGACGAUCACUGUCUCUUAGAAUUUGCUGGGCUGUGGGUUCUCAGUAAUUACCUGUGCUUCAGUAAGUAGUAUCUUGCCCCUAAAGUUCAAUUAUUUCAGAAAUGUAACAUGAAAAUAGUGAAUUAGACAACAGAGGAUUGAGCAUCA
B22: chr2:15737528:15737529:+_ENSG00000079785_ENST00000233084|hu_hu|motif|central (ssRNA)
RNA: GGGAGUUCUACAGUCCGACGAUCUUUAAUUGUUGUUUUUCCUUUUUUGCCUUCCUGUUGGUCUUUCAGAGUUUCAUAAACGGUCUGGAUAACUGGAAUACUAAAAGCACCAGUUUUGCCACUUCCUGUUUCUGCAGCCAUAAGCAACAGAGGAUUGAGCAUCA

Molecular target: T1, UNK ZnF1-3 (human, UniProt Q9C0B0 31-174)
T1 sequence: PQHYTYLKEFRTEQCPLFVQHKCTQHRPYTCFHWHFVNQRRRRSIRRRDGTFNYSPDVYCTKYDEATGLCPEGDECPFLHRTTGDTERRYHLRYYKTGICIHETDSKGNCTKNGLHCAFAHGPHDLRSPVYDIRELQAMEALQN
Experiment: nsRBNS (natural sequence RNA bind-n-seq); RBNS binding buffer (assumed for nsRBNS): 25 mM Tris pH 7.5, 150 mM KCl, 3 mM MgCl2, 0.01% Triton X-100, 500 ug/ml BSA, 20 U/ml SUPERase-In, 4 C; UNK is unkempt and MSI1 is Musashi-1; names of the RNAs are library labels; protein concentration not given here; high values mean tight binding

In order of falling binding signal:
1. B12  2.48 enrichment R
2. B5  2.21 enrichment R
3. B20  1.95 enrichment R
4. B13  1.85 enrichment R
5. B16  1.8 enrichment R
6. B11  1.78 enrichment R
7. B3  1.46 enrichment R
8. B1  1.42 enrichment R
9. B8  1.33 enrichment R
10. B2  1.31 enrichment R
11. B10  1.08 enrichment R
12. B4  0.979 enrichment R
13. B21  0.946 enrichment R
14. B19  0.913 enrichment R
15. B9  0.878 enrichment R
16. B7  0.814 enrichment R
17. B14  0.806 enrichment R
18. B22  0.664 enrichment R
19. B17  0.658 enrichment R
20. B18  0.556 enrichment R
21. B15  0.545 enrichment R
22. B6  0.423 enrichment R
